Laboratory results reported in the supplement of paper PMC4604168 (melanoma cell lines).
This is one part of the list. Repeats are few or missing, and single values can be far off.
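Also: cells treated in 1,536-well plates, then fixed and DAPI-stained, with nuclei counted from automated high-throughput microscope images.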

The compounds below were run on SkMel2 (assay: cell count relative to DMSO control; melanoma cells; higher = more viable cells). Details: library dose: standard library concentration; 72 h.
Compound `O=S(=O)(c1ccccc1)N(CC(F)(F)F)c1ccc(C(O)(C(F)(F)F)C(F)(F)F)cc1` + CCCCCCCCCCCC1=C(O)C(=O)C=C(O)C1=O [Embelin] (first compound 7 µM, partner dose 6 µM) has a cell count of 90.1%. `N#Cc1c(O)c2c(-c3ccc(-c4ccccc4O)cc3)csc2[nH]c1=O` + COc1ccc(-c2ccc3c(N4CCOCC4)nc(N4C[C@@H](C)O[C@@H](C)C4)nc3n2)cc1CO [KU0063794] (first compound 10 µM, partner dose 0.1 µM) gave a cell count of 88.4%. With `COc1ccc2c(c1)CCC1C2CCC2(C)C(NCCCCCCN3C(=O)C=CC3=O)CCC12` (stereo not drawn) + CC(C)CCN1c2nc(Nc3cc(F)c(O)c(F)c3)ncc2N(C)C(=O)C1C [BID1870] (first compound 2 µM, partner dose 1 µM) the cell count was 80.8%. Compound `Oc1cc(-c2nc(-c3ccccc3)[nH]c2-c2ccncc2)ccc1Cl` + O=C1NC(=O)/C(=C/c2ccc(-c3ccc(F)cc3O)o2)S1 [AS252424] (first compound 1 µM, partner dose 5 µM) has a cell count of 16.4%. `COc1ccc2c(c1)CCC1C2CCC2(C)C(NCCCCCCN3C(=O)C=CC3=O)CCC12` (stereo not drawn) + c1cc(-c2cnn3cc(-c4ccc(OCCN5CCCCC5)cc4)cnc23)ccn1 [Dorsomorphin] (first compound 2 µM, partner dose 2 µM) gave a cell count of 81.6%. For `Cn1cc(/C=C2\C(=O)Nc3cccnc32)c2ccccc21` + O=c1cc(-c2cccc3c2Sc2ccccc2S3)oc(N2CCOCC2)c1 [KU55933] (first compound 2 µM, partner dose 5 µM), the cell count was 83.1%. `O=S(=O)(c1ccccc1)N(CC(F)(F)F)c1ccc(C(O)(C(F)(F)F)C(F)(F)F)cc1` + O=c1cc(-c2cccc3c2Sc2ccccc2S3)oc(N2CCOCC2)c1 [KU55933] (first compound 7 µM, partner dose 5 µM) showed a cell count of 71.3%. Compound `COc1ccc(COc2ccc(Cc3cnc(N)nc3N)cc2OC)cc1` + Oc1cc(-c2nc(-c3ccccc3)[nH]c2-c2ccncc2)ccc1Cl [L779450] (first compound 5 µM, partner dose 1 µM) has a cell count of 28.2%. With `N#Cc1c(O)c2c(-c3ccc(-c4ccccc4O)cc3)csc2[nH]c1=O` + c1cc(-c2cnn3cc(-c4ccc(OCCN5CCCCC5)cc4)cnc23)ccn1 [Dorsomorphin] (first compound 10 µM, partner dose 2 µM) the cell count was 98.8%. For `Oc1nc(-c2ccc(C(F)(F)F)cc2)nc2c1CSCC2` + COc1cc(N2CCC(N3CCN(C)CC3)CC2)ccc1Nc1ncc(Cl)c(Nc2ccccc2S(=O)(=O)C(C)C)n1 [NVP-TAE684] (first compound 10 µM, partner dose 0.4 µM), the cell count was 71.2%. In the case of `COc1ccc(-c2ccc3c(N4CCOCC4)nc(N4C[C@@H](C)O[C@@H](C)C4)nc3n2)cc1CO` + O=S(=O)(c1ccccc1)N(CC(F)(F)F)c1ccc(C(O)(C(F)(F)F)C(F)(F)F)cc1 [T0901317] (first compound 0.1 µM, partner dose 7 µM), the cell count is reported as 62.6%. With `COc1ccc(COc2ccc(Cc3cnc(N)nc3N)cc2OC)cc1` + CC(C)CCN1c2nc(Nc3cc(F)c(O)c(F)c3)ncc2N(C)C(=O)C1C [BID1870] (first compound 5 µM, partner dose 1 µM) the cell count was 95.1%. For `c1cc(-c2cnn3cc(-c4ccc(OCCN5CCCCC5)cc4)cnc23)ccn1` [Dorsomorphin] + CC(C)CCN1c2nc(Nc3cc(F)c(O)c(F)c3)ncc2N(C)C(=O)C1C [BID1870] (first compound 2 µM, partner dose 1 µM), the cell count was 71.4%. In the case of `N#Cc1c(O)c2c(-c3ccc(-c4ccccc4O)cc3)csc2[nH]c1=O` + O=c1cc(-c2cccc3c2Sc2ccccc2S3)oc(N2CCOCC2)c1 [KU55933] (first compound 10 µM, partner dose 5 µM), the cell count is reported as 83.1%. In the case of `N#Cc1c(O)c2c(-c3ccc(-c4ccccc4O)cc3)csc2[nH]c1=O` + CCN(CC)CCCCNc1ncc2cc(-c3cc(OC)cc(OC)c3)c(NC(=O)NC(C)(C)C)nc2n1 [PD173074] (first compound 10 µM, partner dose 0.5 µM), the cell count is reported as 102%. Compound `Oc1cc(-c2nc(-c3ccccc3)[nH]c2-c2ccncc2)ccc1Cl` + Oc1nc(-c2ccc(C(F)(F)F)cc2)nc2c1CSCC2 [XAV939] (first compound 1 µM, partner dose 10 µM) has a cell count of 40.3%. Work on `O=S(=O)(c1ccccc1)N(CC(F)(F)F)c1ccc(C(O)(C(F)(F)F)C(F)(F)F)cc1` + Oc1cc(-c2nc(-c3ccccc3)[nH]c2-c2ccncc2)ccc1Cl [L779450] (first compound 7 µM, partner dose 1 µM) yielded a cell count of 28.5%. In the case of `N#Cc1c(O)c2c(-c3ccc(-c4ccccc4O)cc3)csc2[nH]c1=O` + Oc1cc(-c2nc(-c3ccccc3)[nH]c2-c2ccncc2)ccc1Cl [L779450] (first compound 10 µM, partner dose 1 µM), the cell count is reported as 38.9%.
